In the supplement of paper PMC3334620:
The full ranking holds about 33,000 sequences; the median of “E-score (-0.5 to 0.5)” is about -0.021, and the highest 2% start at about 0.32. This is one part of the list.

The sequences below were run against T1, Zap1 (UniProt P47043) (assay: PBM E-score (8-mer binding enrichment) (E-score (-0.5 to 0.5)); higher = stronger / more preferred TF binding; most listed sequences are background and not binding sites). Conditions: protein concentration: 200 nM; construct: GST-full length.
T1 sequence: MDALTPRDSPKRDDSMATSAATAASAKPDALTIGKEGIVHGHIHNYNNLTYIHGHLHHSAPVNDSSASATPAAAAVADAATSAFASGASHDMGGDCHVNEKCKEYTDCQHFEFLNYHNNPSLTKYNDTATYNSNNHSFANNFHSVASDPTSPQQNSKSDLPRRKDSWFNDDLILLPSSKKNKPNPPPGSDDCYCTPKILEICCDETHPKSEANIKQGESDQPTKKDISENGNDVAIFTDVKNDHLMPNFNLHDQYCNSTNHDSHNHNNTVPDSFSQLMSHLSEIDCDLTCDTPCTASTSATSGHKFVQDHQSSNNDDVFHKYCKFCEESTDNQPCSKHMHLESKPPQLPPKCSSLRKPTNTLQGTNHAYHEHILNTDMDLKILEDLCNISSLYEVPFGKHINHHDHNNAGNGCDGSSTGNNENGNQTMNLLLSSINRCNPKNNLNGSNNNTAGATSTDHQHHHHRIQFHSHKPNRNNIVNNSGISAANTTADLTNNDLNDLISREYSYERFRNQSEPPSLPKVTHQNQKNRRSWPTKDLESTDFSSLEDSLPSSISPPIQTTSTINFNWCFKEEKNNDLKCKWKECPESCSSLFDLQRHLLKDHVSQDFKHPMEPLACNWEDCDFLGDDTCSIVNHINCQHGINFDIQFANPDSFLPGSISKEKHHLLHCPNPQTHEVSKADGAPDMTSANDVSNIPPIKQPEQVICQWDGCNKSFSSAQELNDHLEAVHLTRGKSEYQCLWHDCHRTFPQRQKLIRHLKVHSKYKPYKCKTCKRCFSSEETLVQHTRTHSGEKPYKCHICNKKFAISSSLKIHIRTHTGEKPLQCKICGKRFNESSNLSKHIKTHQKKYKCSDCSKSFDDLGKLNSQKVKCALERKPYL
Procedure: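 Universal 'all 10-mer' protein binding microarrays (Agilent AMADID 015681) probed with GST-tagged S. cerevisiae TFs (full-length or DBD) made by in vitro transcription/translation (PURExpress), about 100-200 nM. Bound TF was detected with fluorescent anti-GST. Each ungapped 8-mer (which stands for itself and its reverse complement) is scored by the PBM enrichment score (E-score), a modified Wilcoxon-Mann-Whitney statistic from -0.5 to +0.5, computed with the Universal PBM Analysis Suite. Scale: above 0.35 generally sequence-specific binding.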

| Sequence | PBM E-score |
| --- | --- |
| TGATCTAA | 0.0921 |
| AGCCGATA | -0.237 |
| GGTCTGAA | 0.135 |
| CTTGACTC | -0.205 |
| ACAGACGG | -0.221 |
| AAATGGCC | 0.0268 |
| GCTGTGGA | -0.0748 |
| ATGAGGCC | 0.171 |
| ACTTACGG | 0.0636 |
| TGCGTTAA | 0.127 |
| CAAAGGGA | -0.0511 |
| ACGGCGGA | -0.13 |
| AGCACGTC | -0.298 |
| AGTACCAA | 0.254 |
| CCGGGCCC | -0.0329 |
| CACGGTTA | 0.372 |
| CCATAGAA | 0.0531 |
| CAAATTCC | -0.00509 |
| GGAATCGA | -0.255 |
| AACATCAC | 0.0232 |
| GTATCACA | 0.0613 |
| TTACAGAA | 0.133 |
| ATACACAC | 0.177 |
| GAACAAAC | 0.128 |
| AGTCGTGG | -0.101 |

| Sequence | PBM E-score |
| --- | --- |
| ACCTTAGG | 0.216 |
| GGCGTTAC | 0.0794 |
| ACGTAGGC | -0.0949 |
| AGATACCG | 0.0651 |
| CAATCGTC | -0.158 |
| CTTACATA | 0.0764 |
| TACTTTCA | 0.059 |
| CCGTCACA | -0.0724 |
| ACGAAGGG | 0.0647 |
| AAAGCTCT | -0.157 |
| AACCTATC | 0.203 |
| CTTGGCTC | -0.192 |
| AGCGGAGG | -0.196 |
| AGCTTGAC | -0.0289 |
| CCCCCTTA | -0.365 |
| GAATCACA | -0.17 |
| AATCTACA | 0.167 |
| AGTGACAC | -0.119 |
| CCCTACTC | 0.0737 |
| CAGACGAG | -0.164 |
| CGCTTAAC | 0.131 |
| CCGTATCG | -0.15 |
| CCGCGCAG | -0.043 |
| ATTCGCGC | -0.0824 |
| CCGTCGTC | -0.228 |

| Sequence | PBM E-score |
| --- | --- |
| GGGCCACA | 0.0248 |
| GACCGATC | -0.154 |
| ATTGAATG | 0.113 |
| GTGTTGAA | -0.0764 |
| AAGGTCCA | 0.00444 |
| AGAAGCCC | -0.122 |
| GGGCCCCA | 0.0485 |
| CATAGGTC | 0.106 |
| CAAGTACG | -0.218 |
| ATCCTGCA | -0.0915 |
| AGTCCTCA | -0.078 |
| CGCAGACG | -0.129 |
| CCCTGCGG | 0.292 |
| AACACTCT | -0.0922 |
| ACAATGTC | 0.00751 |
| AAAAGTGG | 0.242 |
| CCAAATGC | 0.0316 |
| AGTACTAT | 0.124 |
| ACTATGCC | -0.0338 |
| ATTACTCA | 0.0908 |
| TCGGGTCA | 0.233 |
| CGCTATAA | 0.00813 |
| ATCCGCCG | 0.0104 |
| AGTTGTTA | 0.161 |
| AAGCGTGT | -0.184 |

| Sequence | PBM E-score |
| --- | --- |
| AGCCAGTG | -0.208 |
| AGGAGCAT | -0.326 |
| AGTTAACC | 0.289 |
| AATACATT | 0.0382 |
| CGAGACGC | -0.189 |
| CGCATAGA | -0.00888 |
| TCTTAACA | -0.0657 |
| AAACGCTT | -0.162 |
| CACTTGAA | 0.0498 |
| ATAGAGAA | -0.0311 |
| TATGGCGA | -0.125 |
| CCCGATGA | 0.0306 |
| CAGTCAAA | -0.0966 |
| ACAGGCAC | -0.297 |
| CGTGACTA | 0.0834 |
| AATACCGA | 0.014 |
| ACTCTGAA | -0.0473 |
| CTAATCGA | 0.0645 |
| AGATAAGA | 0.125 |
| AGCGCAGC | -0.41 |
| CTTACAGA | 0.0139 |
| CAATGCAG | -0.0775 |
| AAATACAT | -0.0948 |
| ACAACTGC | -0.0344 |
| AGGGACCT | 0.281 |

| Sequence | PBM E-score |
| --- | --- |
| ATGATCTG | 0.0147 |
| CGACAAGC | -0.158 |
| CAACATCC | -0.218 |
| CGCTGTGC | -0.0239 |
| CCGGGAGC | -0.233 |
| CCAAAGTA | 0.027 |
| AGGCTGAG | -0.0733 |
| ACATCAAT | 0.106 |
| CAAACCAC | 0.0159 |
| GAAGTTAA | -0.0394 |
| GACCAAGC | 0.039 |
| AATAACAC | 0.107 |
| CCACCAAG | -0.123 |
| ACATCAAC | 0.105 |
| AAACCCAG | 0.228 |
| GGACAAAC | 0.137 |
| AACATCCA | 0.0169 |
| ATCAATGC | -0.232 |
| GAAAAGGA | -0.0181 |
| ATAGCCAG | -0.0475 |
| CCTGATCG | -0.172 |
| GAGCTAAA | -0.159 |
| TCCTGCCA | -0.26 |
| ATTTGTGA | 0.123 |
| AAATTGAT | 0.102 |

| Sequence | PBM E-score |
| --- | --- |
| ATGGAAAA | 0.146 |
| ACCTCCAA | 0.157 |
| ACGGGTCA | 0.223 |
| AGCCTGCG | -0.282 |
| GAGTGGTA | 0.11 |
| GTCCCCAC | 0.0691 |
| ATGTCAAT | -0.166 |
| AATCGAAC | 0.0379 |
| ATTTGGGA | 0.0783 |
| ACGTGCCT | -0.341 |
| ATCTTCGG | 0.00595 |
| GTTACAAC | 0.291 |
| AAACTAAT | 0.236 |
| ATCCCATC | -0.247 |
| CTTGGGTA | 0.196 |
| ATCGGCGG | -0.103 |
| GACTAGAA | -0.115 |
| CGGACCCC | -0.026 |
| ACATCAGC | -0.133 |
| TATAGGAA | 0.088 |
| GCCACTCA | -0.0824 |
| GACTCACC | -0.172 |
| CTTCGAAC | 0.164 |
| GGACTGCA | -0.171 |
| GTATCAGA | -0.0545 |

| Sequence | PBM E-score |
| --- | --- |
| CAGTTGTC | -0.00938 |
| AGGATGGA | -0.0464 |
| AGTACCCC | 0.296 |
| ATCGACAA | 0.147 |
| ATTGCAAT | -0.00114 |
| ACGTTCAA | -0.181 |
| GGATAACA | -0.0812 |
| AGCATGTC | -0.0983 |
| ATATTAGG | 0.174 |
| GATTCGGC | -0.192 |
| ATCAAAGA | -0.0279 |
| GCCTATCC | -0.194 |
| CCCTAGAG | 0.281 |
| GTAGCTCA | -0.143 |
| TAACGACA | -0.00629 |
| CAGAGAGA | -0.21 |
| GAAGGAGA | -0.122 |
| ATAACTGG | -0.0359 |
| AAATCCAA | 0.108 |
| CAAACCTG | 0.0641 |
| GGAGAACA | -0.0701 |
| CTAGCAAG | -0.192 |
